In US7160888B2, “[1,8]naphthyridin-2-ones and related compounds for the treatment of schizophrenia” (Warner Lambert Company LLC, priority 2003, dated 2007):

Biological target: dopamine D2 receptor (Homo sapiens, UniProt P14416)
Experiment: biochemical
Settings: D2 Ki (nM), 0.4 nM [3H]spiperone, CHO-hD2L membranes

UniProt P14416, sequence (P14416 whole entry): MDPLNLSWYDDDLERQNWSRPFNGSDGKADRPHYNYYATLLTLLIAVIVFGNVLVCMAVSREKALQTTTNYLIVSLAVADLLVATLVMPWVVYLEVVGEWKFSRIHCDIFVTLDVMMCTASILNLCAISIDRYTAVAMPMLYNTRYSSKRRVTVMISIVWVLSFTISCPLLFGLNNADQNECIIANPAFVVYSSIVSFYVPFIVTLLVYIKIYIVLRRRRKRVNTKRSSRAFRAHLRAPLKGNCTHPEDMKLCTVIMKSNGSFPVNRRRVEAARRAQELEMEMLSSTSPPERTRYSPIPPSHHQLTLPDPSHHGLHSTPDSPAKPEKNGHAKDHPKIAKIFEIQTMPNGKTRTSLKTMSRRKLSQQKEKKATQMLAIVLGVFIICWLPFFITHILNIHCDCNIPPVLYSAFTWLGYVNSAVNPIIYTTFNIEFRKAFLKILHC

Structure (SMILES) | Ki (Table 2) | Ki (Table 1)
CC1(C)C=Cc2cccc(N3CCN(CCCCOc4ccc5ccc(=O)[nH]c5n4)CC3)c2O1 [Example B2′, 7-{4-[4-(2,2-Dimethyl-2H-chromen-8-yl)-piperazin-1-yl]-butoxy}-1H-[1,8]naphthyridin-2-one] | 1 nM | –
CC(=O)c1c(Cl)cccc1N1CCN(CCCCOc2ccc3ccc(=O)[nH]c3n2)CC1 [Example B3, 7-{4-[4-(2-Acetyl-3-chloro-phenyl)-piperazin-1-yl]-butoxy}-1H-[1,8]naphthyridin-2-one] | – | 3.9 nM
CC1(C)CCc2cccc(N3CCN(CCCCOc4ccc5ccc(=O)[nH]c5n4)CC3)c2O1 [Example B3′, 7-{4-[4-(2,2-Dimethyl-chroman-8-yl)-piperazin-1-yl]-butoxy}-1H-[1,8]naphthyridin-2-one] | 2 nM | –
CCc1c(Cl)cccc1N1CCN(CCCCOc2ccc3ccc(=O)[nH]c3n2)CC1 [Example B4, 7-{4-[4-(3-Chloro-2-ethyl-phenyl)-piperazin-1-yl]-butoxy}-1H-[1,8]naphthyridin-2-one] | – | 1.4 nM
CC1C=Cc2cccc(N3CCN(CCCCOc4ccc5ccc(=O)[nH]c5n4)CC3)c2O1 (stereo not drawn) [Example B4′, 7-{4-[4-(2-Methyl-2H-chromen-8-yl)-piperazin-1-yl]-butoxy}-1H-[1,8]naphthyridin-2-one] | 1 nM | –
CC(=O)c1c(F)cccc1N1CCN(CCCCOc2ccc3ccc(=O)[nH]c3n2)CC1 [Example B5, 7-{4-[4-(2-Acetyl-3-fluoro-phenyl)-piperazin-1-yl]-butoxy}-1H-[1,8]naphthyridin-2-one] | – | 3 nM
CC1CCc2cccc(N3CCN(CCCCOc4ccc5ccc(=O)[nH]c5n4)CC3)c2O1 (stereo not drawn) [Example B5′, 7-{4-[4-(2-Methyl-chroman-8-yl)-piperazin-1-yl]-butoxy}-1H-[1,8]naphthyridin-2-one] | 0.3 nM | –
CC(=O)c1cccc(N2CCN(CCCCOc3ccc4ccc(=O)[nH]c4n3)CC2)c1Cl [Example B6, 7-{4-[4-(3-Acetyl-2-chloro-phenyl)-piperazin-1-yl]-butoxy}-1H-[1,8]naphthyridin-2-one] | – | 1 nM
O=c1ccc2ccc(OCCCCN3CCN(c4cccc5c4OC4(C=C5)CCCC4)CC3)nc2[nH]1 [Example B6′, 7-{4-[4-(Spiro[chromene-2,1′-cyclopentan]-8-yl)-piperazin-1-yl]-butoxy}-1H-[1,8]naphthyridin-2-one] | 1 nM | –
Cc1cc(N2CCN(CCCCOc3ccc4ccc(=O)[nH]c4n3)CC2)c(Cl)cc1F [Example B7, 7-{4-[4-(2-Chloro-4-fluoro-5-methyl-phenyl)-piperazin-1-yl]-butoxy}-1H-[1,8]naphthyridin-2-one] | – | 5 nM
O=c1ccc2ccc(OCCCCN3CCN(c4cccc5c4OC4(CCCC4)CC5)CC3)nc2[nH]1 [Example B7′, 7-{4-[4-(3,4-Dihydrospiro[chromene-2,1′-cyclopentan]-8-yl)-piperazin-1-yl]-butoxy}-1H-[1,8]naphthyridin-2-one] | 1 nM | –
O=c1ccc2ccc(OCCCCN3CCN(c4cccc5c4OCC5)CC3)nc2[nH]1 [Example B8′, 7-{4-[4-(2,3-Dihydro-benzofuran-7-yl)-piperazin-1-yl]-butoxy}-1H-[1,8]naphthyridin-2-one] | 1 nM | –
CC(C)Oc1ccc(Cl)cc1N1CCN(CCCCOc2ccc3ccc(=O)[nH]c3n2)CC1 [Example B9, 7-{4-[4-(5-Chloro-2-isopropoxy-phenyl)-piperazin-1-yl]-butoxy}-1H-[1,8]naphthyridin-2-one] | – | 1.7 nM
CC1(C)Cc2cccc(N3CCN(CCCCOc4ccc5ccc(=O)[nH]c5n4)CC3)c2O1 [Example B9′, 7-{4-[4-(2,2-Dimethyl-2,3-dihydro-benzofuran-7-yl)-piperazin-1-yl]-butoxy}-1H-[1,8]naphthyridin-2-one] | 1 nM | –
CC(C)Oc1ccccc1N1CCN(CCCCOc2ccc3ccc(=O)[nH]c3n2)CC1 [Example B10, 7-{4-[4-(2-Isopropoxy-phenyl)-piperazin-1-yl]-butoxy}-1H-[1,8]naphthyridin-2-one] | – | 1.2 nM
O=c1ccc2ccc(OCCCCN3CCN(c4cccc5c4CCCO5)CC3)nc2[nH]1 [Example B10′, 7-[4-(4-Chroman-5-yl-piperazin-1-yl)-butoxy]-1H-[1,8]naphthyridin-2-one] | 1 nM | –
CC(C)COc1ccccc1N1CCN(CCCCOc2ccc3ccc(=O)[nH]c3n2)CC1 [Example B11, 7-{4-[4-(2-Isobutoxy-phenyl)-piperazin-1-yl]-butoxy}-1H-[1,8]naphthyridin-2-one] | – | 1.4 nM
O=c1ccc2ccc(OCCCCN3CCN(c4cccc5c4CCO5)CC3)nc2[nH]1 [Example B11′, 7-{4-[4-(2,3-Dihydro-benzofuran-4-yl)-piperazin-1-yl]-butoxy}-1H-[1,8]naphthyridin-2-one] | 1 nM | –
O=c1ccc2ccc(OCCCCN3CCN(c4cccc5c4OCCO5)CC3)nc2[nH]1 [Example B12′, 7-{4-[4-(2,3-Dihydro-benzo[1,4]dioxin-5-yl)-piperazin-1-yl]-butoxy}-1H-[1,8]naphthyridin-2-one] | 2 nM | –
O=c1ccc2ccc(OCCCCN3CCN(c4ccc(F)cc4)CC3)nc2[nH]1 [Example B13, 7-{4-[4-(4-Fluoro-phenyl)-piperazin-1-yl]-butoxy}-1H-[1,8]naphthyridin-2-one] | – | 11.2 nM

Structure (SMILES) | Ki (Table 2) | Ki (Table 1)
O=c1ccc2ccc(OCCCCN3CCN(c4cccc5c4OC(F)(F)O5)CC3)nc2[nH]1 [Example B13′, 7-{4-[4-(2,2-Difluoro-benzo[1,3]dioxol-4-yl)-piperazin-1-yl]-butoxy}-1H-[1,8]naphthyridin-2-one] | 2 nM | –
O=c1ccc2ccc(OCCCCN3CCN(c4ccc(F)c(Cl)c4)CC3)nc2[nH]1 [Example B14, 7-{4-[4-(3-Chloro-4-fluoro-phenyl)-piperazin-1-yl]-butoxy}-1H-[1,8]naphthyridin-2-one] | – | 6.5 nM
O=c1ccc2ccc(OCCCCN3CCN(c4cccc5c4COC5)CC3)nc2[nH]1 [Example B14′, 7-{4-[4-(1,3-Dihydro-isobenzofuran-4-yl)-piperazin-1-yl]-butoxy}-1H-[1,8]naphthyridin-2-one] | 2 nM | –
O=c1ccc2ccc(OCCCCN3CCN(c4cccc(C(F)(F)F)c4)CC3)nc2[nH]1 [Example B15, 7-{4-[4-(3-Trifluoromethyl-phenyl)-piperazin-1-yl]-butoxy}-1H-[1,8]naphthyridin-2-one] | – | 2.5 nM
O=C1CCOc2c1cccc2N1CCN(CCCCOc2ccc3ccc(=O)[nH]c3n2)CC1 [Example B15′, 7-{4-[4-(4-Oxo-chroman-8-yl)-piperazin-1-yl]-butoxy}-1H-[1,8]naphthyridin-2-one] | 9.4 nM | –
O=c1ccc2ccc(OCCCCN3CCN(c4ccccc4C(F)(F)F)CC3)nc2[nH]1 [Example B16, 7-{4-[4-(2-Trifluoromethyl-phenyl)-piperazin-1-yl]-butoxy}-1H-[1,8]naphthyridin-2-one] | – | 2.5 nM
CC1(C)COc2c(cccc2N2CCN(CCCCOc3ccc4ccc(=O)[nH]c4n3)CC2)C1=O [Example B16′, 7-{4-[4-(3,3-Dimethyl-4-oxo-chroman-8-yl)-piperazin-1-yl]-butoxy}-1H-[1,8]naphthyridin-2-one] | 1.1 nM | –
CC(F)(F)c1ccccc1N1CCN(CCCCOc2ccc3ccc(=O)[nH]c3n2)CC1 [Example B17, 7-(4-{4-[2-(1,1-Difluoro-ethyl)-phenyl]-piperazin-1-yl}-butoxy)-1H-[1,8]naphthyridin-2-one] | – | 1.7 nM
CC1(C)COc2c(cccc2N2CCN(CCCCOc3ccc4ccc(=O)[nH]c4n3)CC2)C1 [Example B17′, 7-{4-[4-(3,3-Dimethyl-chroman-8-yl)-piperazin-1-yl]-butoxy}-1H-[1,8]naphthyridin-2-one] | 1.4 nM | –
COc1cccc(N2CCN(CCCCOc3ccc4ccc(=O)[nH]c4n3)CC2)c1Cl [Example B18, 7-{4-[4-(2-Chloro-3-methoxy-phenyl)-piperazin-1-yl]-butoxy}-1H-[1,8]naphthyridin-2-one] | – | 3 nM
O=c1ccc2ccc(OCCCCN3CCN(c4cccc5c4CCOC5)CC3)nc2[nH]1 [Example B18′, 7-[4-(4-Isochroman-5-yl-piperazin-1-yl)-butoxy]-1H-[1,8]naphthyridin-2-one] | 1.4 nM | –
CCOc1cccc(N2CCN(CCCCOc3ccc4ccc(=O)[nH]c4n3)CC2)c1Cl [Example B19, 7-{4-[4-(2-Chloro-3-ethoxy-phenyl)-piperazin-1-yl]-butoxy}-1H-[1,8]naphthyridin-2-one] | – | 4.6 nM
O=c1ccc2ccc(OCCCCN3CCN(c4cccc5c4COCC5)CC3)nc2[nH]1 [Example B19′, 7-[4-(4-Isochroman-8-yl-piperazin-1-yl)-butoxy]-1H-[1,8]naphthyridin-2-one] | 1 nM | –
CC(C)Oc1cccc(N2CCN(CCCCOc3ccc4ccc(=O)[nH]c4n3)CC2)c1Cl [Example B20, 7-{4-[4-(2-Chloro-3-isopropoxy-phenyl)-piperazin-1-yl]-butoxy}-1H-[1,8]naphthyridin-2-one] | – | 13 nM
O=c1ccc2ccc(OCCCCN3CCN(c4cccc5c4OCCCO5)CC3)nc2[nH]1 [Example B20′, 7-{4-[4-(3,4-Dihydro-2H-benzo[b][1,4]dioxepin-6-yl)-piperazin-1-yl]-butoxy}-1H-[1,8]naphthyridin-2-one] | 1 nM | –
Cc1cccc(N2CCN(CCCCOc3ccc4ccc(=O)[nH]c4n3)CC2)c1Oc1ccccc1 [Example B21, 7-{4-[4-(3-Methyl-2-phenoxy-phenyl)-piperazin-1-yl]-butoxy}-1H-[1,8]naphthyridin-2-one] | – | 6.7 nM
O=c1ccc2ccc(OCCCCN3CCN(c4cccc5cccnc45)CC3)nc2[nH]1 [Example B21′, 7-[4-(4-Quinolin-8-yl-piperazin-1-yl)-butoxy]-1H-[1,8]naphthyridin-2-one] | 1 nM | –
O=c1ccc2ccc(OCCCCN3CCN(c4cccc(Cl)c4F)CC3)nc2[nH]1 [Example B22, 7-{4-[4-(3-Chloro-2-fluoro-phenyl)-piperazin-1-yl]-butoxy}-1H-[1,8]naphthyridin-2-one] | – | 1 nM
O=c1ccc2ccc(OCCCCN3CCN(c4cccc5ncccc45)CC3)nc2[nH]1 [Example B22′, 7-[4-(4-Quinolin-5-yl-piperazin-1-yl)-butoxy]-1H-[1,8]naphthyridin-2-one] | 1 nM | –
